Experimental data reported in PubChem BioAssay AID652104 (National Center for Advancing Translational Sciences (NCATS), 2013).
The campaign covered roughly 410,000 compounds. About 7,200 (1.8%) were called active. The inconclusive results got no clear call from the source; some entries with a clear call stand among them for comparison. Calls come from the whole dose curve; as a rule, active = well fitted activation curve with a large enough effect; inconclusive = small, poorly fitted or top-dose-only effect, or another doubt; inactive = no such curve, though single readings can be large or run the other way. A potency beside an inconclusive call is a rough fit, not a confirmed value.

test: qHTS of TDP-43 Inhibitors; conditions: TDP-43 expressing yeast growth rescue, BacTiter-Glo, 24 h; growth rescue (activation): at 46.1 µM (top of the series) unless noted; note: nearly all actives have a fitted effect of over 50% in size; for growth rescue (activation): % of control where 0% means no effect
How it was run: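 Yeast expressing TDP-43 (pregrown in raffinose, seeded at OD600=0.02 in galactose medium) exposed to compounds 24 hr at 30 deg C. Growth read by BacTiter-Glo luminescence; rescue of toxicity appears as increased signal.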
Potency is the fitted concentration of half-maximal effect; tags give direction and shape of the fitted curve.

Potency, inactive:
CC1CCN(c2nc3ccc(C(=O)NCCc4ccc(S(N)(=O)=O)cc4)cc3s2)CC1, COc1ccc(CC(=O)O/N=C(\N)c2ccncc2)cc1, O=C(Cn1c(-c2cccs2)cc2cc(F)ccc21)NCCCN1CCN(c2ccc(F)cc2)CC1

Potency, inconclusive:
O=C(/C(=C/O)N=Nc1ccccc1)c1ccc(Cl)cc1 6.31 µM [activator, single point], O=c1oc(-c2ccc(Br)cc2)nc2ccccc12 2.51 µM [activator, full curve], C=CCNC(=O)c1ccc2nc(-c3ccccc3)c(-c3ccccc3)nc2c1 14.1 µM [activator, single point], CCn1c(SCC(=O)c2ccccc2)nnc1-c1cccc(Cl)c1 25.1 µM [activator, single point], COc1ccccc1NC(=O)C1CCCCN1S(=O)(=O)c1ccc(F)cc1 (centres undefined) 12.6 µM [activator, partial curve], Cc1ccc(OCC(=O)N2CCN(c3nnc(-c4ccc(C)cc4)c4ccccc34)CC2)cc1 22.4 µM [activator, single point], CC1(C)Cc2c(sc3[nH]c(=S)n(Cc4ccco4)c(=O)c23)CO1 6.31 µM [activator, single point], Oc1oc(-c2ccccc2Br)nc1/C=N/c1ccccn1 15.8 µM [activator, partial curve], COc1ccc(OCCn2nnc3sc4c(c3c2=O)CCCC4)cc1 11.2 µM [activator, partial curve], COc1ccc(Nc2nc(NN)nc(Nc3ccc(OC)cc3)n2)cc1 11.2 µM [activator, partial curve], O=C(Nc1ccc(OCCO)cc1)c1csc([C@@H]2C[C@H](O)[C@@H](CO)O2)n1 1.58 µM [activator, partial curve], CCN(Cc1ccccc1)C(=O)Cn1ncc2c(=O)oc3ccc(C)cc3c21 22.4 µM [activator, single point]

Potency, active:
CC(CNC(=O)CCCn1c(=O)c2cccn2c2ccc(F)cc21)c1ccccc1 (centres undefined) 25.1 µM, CC(C)(C)C(=O)Nc1nnc(SCc2ccc(F)cc2)s1 17.8 µM

Growth rescue (activation), inactive:
COc1cccc(CNCCSc2nnnn2-c2ccccc2)c1OC 2.01% [at 9.22 µM], COc1ccc(C(=O)NC(=S)NCc2ccccc2)cc1OC -6.95% [at 9.22 µM]
